The values below come from the BET-seq Pho4 binding data (Le et al. 2018).

The other results are listed elsewhere or left out. These are noisy estimates, calculated here from bound and input reads.

The test addresses T1, Pho4 (S. cerevisiae) (UniProt P07270).
T1 sequence: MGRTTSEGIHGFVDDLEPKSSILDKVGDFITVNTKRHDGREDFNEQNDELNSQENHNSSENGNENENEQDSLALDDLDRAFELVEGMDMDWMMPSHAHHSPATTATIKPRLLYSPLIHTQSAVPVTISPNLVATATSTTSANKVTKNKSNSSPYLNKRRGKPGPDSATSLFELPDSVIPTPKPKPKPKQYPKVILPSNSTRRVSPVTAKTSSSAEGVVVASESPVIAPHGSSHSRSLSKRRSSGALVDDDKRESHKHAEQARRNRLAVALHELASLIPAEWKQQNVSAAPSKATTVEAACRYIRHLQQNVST
Description: relative binding free energy (BET-seq); higher = weaker binding. The following applies: reference: library average.
ACATTCACGTGTTTGG: the “relative binding free energy” value came to 0.24 kcal/mol.
Turning to ATTTGCACGTGGCGTT, the “relative binding free energy” value is -0.02 kcal/mol.
Take TTCTTCACGTGTATTG: the “relative binding free energy” value came to 0.19 kcal/mol.
As for GCAGGCACGTGTGGTA, the figure is 0.03 kcal/mol; as for CTGTGCACGTGGTGTT, -0.14 kcal/mol; as for TTGTTCACGTGCCGGG, 0.26 kcal/mol.
As for TAGGACACGTGAGATT, the figure is 0.18 kcal/mol; as for TAGTGCACGTGCGGTC, -0.01 kcal/mol; as for GCTTGCACGTGGATTG, 0.03 kcal/mol.
As for CGTTTCACGTGTAGTT, the figure is 0.33 kcal/mol; as for GGAGGCACGTGAGTGA, 0.24 kcal/mol.
In the case of AGTTTCACGTGTTGCA, the “relative binding free energy” value amounted to 0.4 kcal/mol.
Turning to TGTCACACGTGTAGGA, the “relative binding free energy” value amounted to 0.09 kcal/mol.
With GTTTCCACGTGGAGTT the figure was 0.25 kcal/mol; with TTGGTCACGTGTCATG, 0.11 kcal/mol; with GTGGGCACGTGTTCTT, -0.07 kcal/mol.
With ACAGTCACGTGGAGAG the figure was 0.12 kcal/mol; with ATTTGCACGTGGGAAA, -0.02 kcal/mol.
With ATCTGCACGTGGGAGT the figure was 0 kcal/mol; with CTAGACACGTGAGGGG, 0.13 kcal/mol.
Turning to TTTGTCACGTGATCTT, the “relative binding free energy” value amounted to 0.31 kcal/mol.
In the case of GTGTGCACGTGGTGCA, the “relative binding free energy” value was -0.03 kcal/mol.
TAAGACACGTGGGGGA: the “relative binding free energy” value was -0.07 kcal/mol.
As for TGGGACACGTGGGTTG, the figure is -0.13 kcal/mol; as for GTCTACACGTGTAGTT, 0.12 kcal/mol.
As for AAGATCACGTGGGCTG, the figure is 0.04 kcal/mol; as for TTACGCACGTGTAGTT, -0.01 kcal/mol.
As for ATGTACACGTGTTTGT, the figure is 0.1 kcal/mol; as for TTTTACACGTGGTCAA, 0.02 kcal/mol; as for ATCTACACGTGAATGT, 0.48 kcal/mol.
For ATGCGCACGTGGTGCT, the “relative binding free energy” value is -0.2 kcal/mol.
As for GGGTTCACGTGAAAGA, the figure is 0.65 kcal/mol; as for ATGAGCACGTGTCTGG, -0.1 kcal/mol; as for GTATTCACGTGGTAGG, 0.13 kcal/mol.
Turning to TATAACACGTGTTGGC, the “relative binding free energy” value was 0.13 kcal/mol.
As for CTTAACACGTGTTTTA, the figure is -0.06 kcal/mol; as for CGGGTCACGTGTGTTG, 0.14 kcal/mol; as for GGGGTCACGTGGGATT, 0.13 kcal/mol.
As to GCCGGCACGTGGGGTG, the “relative binding free energy” value is -0.21 kcal/mol.
Turning to AGTAGCACGTGGGTAA, the “relative binding free energy” value was -0.2 kcal/mol.
As for TAGCGCACGTGATTGT, the figure is -0.05 kcal/mol; as for GGAGTCACGTGTAAGT, 0.24 kcal/mol.
On to GGGCTCACGTGAGGGG, for which the “relative binding free energy” value is 0.36 kcal/mol.
Take GGTATCACGTGGCGAG: the “relative binding free energy” value was 0.2 kcal/mol.
In the case of TATTCCACGTGGGAGT, the “relative binding free energy” value is -0.03 kcal/mol.
For the sequence TTGGACACGTGTGTGA, the “relative binding free energy” value is 0.04 kcal/mol.
With TGATTCACGTGTGTAT the figure was 0.24 kcal/mol; with GTTCGCACGTGGGGAG, 0.01 kcal/mol; with CTTAACACGTGAAGTG, 0.25 kcal/mol.
As for GGCATCACGTGGTTTG, the figure is 0.2 kcal/mol.
TTTCTCACGTGCTGTT: the “relative binding free energy” value is 0.24 kcal/mol.
With GTTGGCACGTGAGAGT, the “relative binding free energy” value worked out at 0.2 kcal/mol.
For the sequence TCATGCACGTGCGTGG, the “relative binding free energy” value was -0.12 kcal/mol.
With GAATCCACGTGGGGGG the figure was 0.07 kcal/mol; with TTGGCCACGTGATAGT, 0.23 kcal/mol; with GCGTGCACGTGTAGAG, 0.14 kcal/mol.
As for TTTACCACGTGGCGGG, the figure is -0.1 kcal/mol.
As for GAACTCACGTGATGTT, the figure is 0.54 kcal/mol; as for TGGTCCACGTGTGGGA, 0.07 kcal/mol; as for GGTTTCACGTGGAGAC, 0.37 kcal/mol.
As for CCTGGCACGTGGTGGA, the “relative binding free energy” value is -0.13 kcal/mol.
For the sequence GGTATCACGTGTGTCA, the “relative binding free energy” value is 0.16 kcal/mol.
As for TGACTCACGTGGATGG, the figure is 0.21 kcal/mol; as for TTCTTCACGTGGGGGA, 0.18 kcal/mol.
With GCAGTCACGTGAGGGT the figure was 0.37 kcal/mol.
As for GGACTCACGTGTGGGC, the figure is 0.22 kcal/mol; as for AACATCACGTGTGGGG, 0.26 kcal/mol.
For CAGATCACGTGGGTGA, the “relative binding free energy” value came out at 0.06 kcal/mol.
Turning to GTGTCCACGTGAAGGT, the “relative binding free energy” value is 0.12 kcal/mol.
Turning to AAGGGCACGTGGTGGA, the “relative binding free energy” value is -0.15 kcal/mol.
With TATGGCACGTGAGTGT the figure was 0.16 kcal/mol; with TGCTTCACGTGTGCAT, 0.29 kcal/mol.
As for CTGTGCACGTGACTGG, the figure is 0.08 kcal/mol; as for TGCTACACGTGTGATG, 0.22 kcal/mol; as for TTAAACACGTGAGGAT, 0.12 kcal/mol.
Turning to GGGAGCACGTGGGTGC, the “relative binding free energy” value is -0.16 kcal/mol.
With GGTAACACGTGTTTTT the figure was 0.14 kcal/mol; with ACTTTCACGTGTTGTC, 0.26 kcal/mol.
For TTGTACACGTGTGGGT, the “relative binding free energy” value was 0.21 kcal/mol.
With CGAAGCACGTGTGTTG, the “relative binding free energy” value was -0.06 kcal/mol.
On to GTGGGCACGTGGGTCT, for which the “relative binding free energy” value was -0.12 kcal/mol.
On to AAAGTCACGTGGTGCA, for which the “relative binding free energy” value was 0.08 kcal/mol.
As for GATTCCACGTGGTGTA, the figure is 0.1 kcal/mol.
With GTGAACACGTGTTGAA the figure was 0.18 kcal/mol.
Turning to TTGGGCACGTGGTTCC, the “relative binding free energy” value is -0.11 kcal/mol.
With TGTTACACGTGGGGGA the figure was -0.04 kcal/mol; with TATGACACGTGGTAAT, 0.02 kcal/mol.
For ACTGTCACGTGGGTCG, the “relative binding free energy” value was 0.02 kcal/mol.
For TATTTCACGTGTGGGT, the “relative binding free energy” value was determined as 0.33 kcal/mol.
As for GGTGGCACGTGGACTA, the figure is -0.02 kcal/mol; as for AATCGCACGTGTAAGT, 0.12 kcal/mol; as for TTTAACACGTGATGGC, 0.19 kcal/mol.
With GTGGCCACGTGGTGTT the figure was -0.16 kcal/mol; with TCGGTCACGTGTGGAA, 0.12 kcal/mol; with TGGCTCACGTGAGATG, 0.34 kcal/mol.
With TTGGACACGTGTGGAT the figure was 0.12 kcal/mol; with GCTGGCACGTGATTTG, 0.15 kcal/mol; with CGTGGCACGTGAAAGG, 0.14 kcal/mol.
Take TGTAACACGTGTGGAA: the “relative binding free energy” value is -0.06 kcal/mol.
Regarding ATACGCACGTGAGTGG, the “relative binding free energy” value turned out to be 0.05 kcal/mol.
With TGGTGCACGTGGTTCA the figure was -0.04 kcal/mol.
For AGGTGCACGTGTGGAG, the “relative binding free energy” value turned out to be 0 kcal/mol.
As for ATCTTCACGTGAGGTA, the figure is 0.35 kcal/mol.
Consider TGTAACACGTGAGTGT, for which the “relative binding free energy” value amounted to 0.09 kcal/mol.
GAGTTCACGTGTTATG: the “relative binding free energy” value amounted to 0.43 kcal/mol.
With GCGTGCACGTGTGCGG the figure was 0.1 kcal/mol; with GAAAGCACGTGGGGGA, -0.09 kcal/mol; with AATGGCACGTGCTGGA, -0.26 kcal/mol.
As for TGAGTCACGTGTATCT, the figure is 0.12 kcal/mol.
On to AGGTGCACGTGTTGCT, for which the “relative binding free energy” value is -0.13 kcal/mol.
Take TGGCCCACGTGGGGAT: the “relative binding free energy” value is -0.22 kcal/mol.
As for TTGGACACGTGGCTCG, the figure is 0.03 kcal/mol.
With TTCTGCACGTGTAAGT the figure was 0.09 kcal/mol; with TTGTACACGTGGAAAT, 0.22 kcal/mol.
With TTCCGCACGTGTTGTG the figure was -0.08 kcal/mol.
